Measurements from PubChem BioAssay AID924 (National Center for Advancing Translational Sciences (NCATS), 2007).
Screen size: about 130,000 compounds; about 1,200 (0.92%) were called active. Inconclusive means that the source gave no clear call. Such entries were picked first, then a sample of the others. Calls follow the shape of the dose curve; as a rule, active = well fitted cell-killing curve with a large enough effect; inconclusive = small, poorly fitted or top-dose-only effect; inactive = no such curve, though single readings can be large or run the other way. Potencies beside an inconclusive call are fits to weak or partial responses and may not hold up.

Assay: qHTS Screen for Compounds that Selectively Target Cancer Cells with p53 Mutations: Cytotoxicity of p53ts Cells at the Permissive Temperature; also: nearly all actives have a fitted effect of over 55% in size;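 as to activity change, negative = cytotoxicity: 0% = DMSO and -100% = full killing by reference compound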
Settings: H1299-p53A138V at 32C, ATP luminescence viability, 24 h; activity change, negative = cytotoxicity: at 46.1 µM (top of the series)
Procedure, shortened: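 Cells: H1299 p53ts (A138V), 600/well, pre-incubated 16–30 h at 37C. Cpd up to 46 uM, 24 h, 32C. Readout: ATPlite luminescence, 20 min RT. Normalization: DMSO vs tamoxifen 100 uM. AC50 by Hill equation.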
Potency is read from the fitted curve at half-maximal effect; tags tell the direction and shape of the fitted curve.

Row | Structure (SMILES) | Potency | activity change, negative = cytotoxicity
1 | COc1ccc(N(Cc2cccs2)C(=O)c2ccc(Br)o2)cc1 | inconclusive: 35.5 µM [cytotoxic, single point] | 
2 | COc1cccc(-c2nnc(Nc3nc4c(F)cccc4s3)o2)c1 | inconclusive: 2 µM [cytotoxic, full curve, poor fit] | 
3 | C[C@@H]1C=C[C@](Cc2ccccc2)(C(=O)NCC2CC2)N1C(=O)c1ccccc1 |  | inactive: 3.59%
4 | COc1ccc2nc(NC(=O)c3nc(S(=O)(=O)Cc4ccccc4)ncc3Cl)sc2c1 | active: 12.6 µM | 
5 | Fc1ccc(CSc2nc3ncccc3[nH]2)cc1 | inconclusive: 12.6 µM [cytotoxic, single point] | 
6 | CC(=O)Nc1cccc(-c2nc3ccc(NC(C)=O)cc3[nH]2)c1 | inconclusive: 12.6 µM [cytotoxic, partial curve] | 
7 | CCOC(=O)Cc1ccc(NC(=O)Nc2ccccc2OCc2cc(=O)n3ccccc3n2)cc1 | inconclusive: 15.8 µM [cytotoxic, partial curve] | 
8 | COC(=O)c1ccc(NC(=O)CCc2c(C)nc3c(-c4ccccc4)c(C)nn3c2C)cc1 | inconclusive: 35.5 µM [cytotoxic, single point] | 
9 | CCN(c1ccc(C)cc1)S(=O)(=O)c1nnc(NC(=O)C2CCCCC2)s1 | inconclusive: 20 µM [cytotoxic, single point] | 
10 | CCCCNC(=O)c1ccc2nc(-c3ccco3)c(-c3ccco3)nc2c1 |  | inactive: -7.62%
11 | O=C(CN1CCCc2ccccc21)N/N=C/c1ccc(O)cc1O | inconclusive: 0.0398 µM [cytotoxic, full curve, poor fit] | 
12 | CCc1ccccc1Nc1nn2c(=O)c3ccc(C(=O)NCc4ccc(C)cc4)cc3nc2s1 | inconclusive: 12.6 µM [cytotoxic, partial curve] | 
13 | CCOc1cccc(NC(=O)C2CC(=O)N(C)C(=Nc3cccc(OC)c3)S2)c1 (stereo not drawn) | inconclusive: 25.1 µM [cytotoxic, single point] | 
14 | COc1cccc(-c2nc(NCCc3c[nH]c4ccc(OC)cc34)c3ccccc3n2)c1 | inconclusive: 31.6 µM [cytotoxic, single point] | 
15 | CN(C)c1ccc(C2(c3ccc(N(C)C)cc3)OC(=O)c3cc(N(C)C)ccc32)cc1 |  | inactive: 0.38% [at 1.84 µM]
16 | COc1cccc2c1cc1c(=O)n(CC(=O)N3CCN(c4ccccc4F)CC3)nc(C)n12 |  | inactive: 3.78%
17 | COc1ccc(-c2noc(CCCOc3ccccc3)n2)cc1OC |  | inactive: -0.0072%
18 | Cc1ccc(-n2ncc3c(N(C)Cc4ccccc4)ncnc32)cc1 | inconclusive: 2.82 µM [cytotoxic, full curve, poor fit] | 
